Test results taken from PMC4336329 (PLoS ONE, 2015).
Hit rate of the full screen: of about 310,000 compounds, about 14,000 (4.5%) showed an effect of 50% or more. Effects have a minus sign here. This is one part of the list.

Biological target: human ether-à-go-go-related gene (hERG) potassium channel (human, UniProt Q12809)
Assay: primary screen, population patch clamp on CHO cells stably expressing hERG
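Further: peak tail current of the secondary pulse compared with the same well before compound.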

Chain of human ether-à-go-go-related gene (hERG) potassium channel (Q12809 whole entry, looked up): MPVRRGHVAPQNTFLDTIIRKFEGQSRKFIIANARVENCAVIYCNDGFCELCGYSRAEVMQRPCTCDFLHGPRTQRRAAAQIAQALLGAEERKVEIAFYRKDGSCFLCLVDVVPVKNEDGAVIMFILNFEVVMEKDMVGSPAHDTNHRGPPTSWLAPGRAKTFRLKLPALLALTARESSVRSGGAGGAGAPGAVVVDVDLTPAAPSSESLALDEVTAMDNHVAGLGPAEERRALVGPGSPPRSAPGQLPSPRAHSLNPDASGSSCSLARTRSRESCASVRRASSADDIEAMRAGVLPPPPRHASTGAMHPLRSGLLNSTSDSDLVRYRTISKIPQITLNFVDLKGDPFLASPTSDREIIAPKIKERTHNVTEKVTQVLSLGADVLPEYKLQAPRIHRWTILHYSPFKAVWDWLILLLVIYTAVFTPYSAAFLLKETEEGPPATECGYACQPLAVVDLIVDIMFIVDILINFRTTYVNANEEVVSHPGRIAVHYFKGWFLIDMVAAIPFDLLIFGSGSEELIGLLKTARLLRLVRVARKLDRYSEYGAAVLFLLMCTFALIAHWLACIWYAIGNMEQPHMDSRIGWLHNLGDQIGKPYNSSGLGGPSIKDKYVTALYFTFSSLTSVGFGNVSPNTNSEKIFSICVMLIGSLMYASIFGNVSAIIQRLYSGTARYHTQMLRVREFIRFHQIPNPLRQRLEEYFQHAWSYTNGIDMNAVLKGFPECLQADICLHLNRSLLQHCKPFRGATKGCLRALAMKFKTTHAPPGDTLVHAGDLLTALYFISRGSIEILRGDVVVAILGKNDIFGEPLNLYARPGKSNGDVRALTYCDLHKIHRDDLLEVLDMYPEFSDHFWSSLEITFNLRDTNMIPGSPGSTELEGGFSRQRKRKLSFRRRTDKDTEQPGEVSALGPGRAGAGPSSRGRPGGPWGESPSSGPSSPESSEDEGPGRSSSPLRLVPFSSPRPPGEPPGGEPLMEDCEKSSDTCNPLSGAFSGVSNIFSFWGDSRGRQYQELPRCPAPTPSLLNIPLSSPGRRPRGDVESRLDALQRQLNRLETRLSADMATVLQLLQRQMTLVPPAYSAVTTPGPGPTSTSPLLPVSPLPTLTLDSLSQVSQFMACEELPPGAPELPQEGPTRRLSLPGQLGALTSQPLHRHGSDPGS

Structure (SMILES) | hERG current change (%, negative = inhibition) at 10uM
Cc1c(C(=O)NC(=S)NCc2cccnc2)cccc1[N+](=O)[O-] | 1.11%
O=C(O)CCc1ccc(-c2ccc(F)cc2)n1NC(=O)c1ccco1 | 8.01%
O=C(CNC(=O)c1ccc(Cl)cc1)c1ccc(Cl)cc1 | 7.28%
O=C(Nc1ccccc1F)c1ccc2c(c1)OCO2 | 15.7%
CC(NC(=O)c1ccccc1OC(F)F)c1ccc(-n2ccnc2)cc1 (centres unmarked) | -55%
CC(CCc1ccccc1)NC(=O)Cc1cccs1 (centres unmarked) | -0.424%
Cc1ccc(NC(=O)c2cccc(OC(F)F)c2)c(OC(F)F)c1 | -36.2%
COc1cc(OC)c(OC)cc1CNc1nnnn1C | -15.9%
Cc1c(CC(=O)NCC(=O)O)c(=O)oc2cc3oc4c(c3cc12)CCCC4 | 24.8%
COc1ccccc1N1CCN(CCc2ccccc2)CC1 | -59.4%
Cc1ccc(S(=O)(=O)N(C)c2ccc(C(=O)Nc3ccccc3C(=O)N3CCOCC3)cc2)cc1 | 11%
CC1Sc2ccc(S(=O)(=O)N3CCC(C(=O)N(C)Cc4ccccc4)CC3)cc2NC1=O (centres unmarked) | 2.13%
CCCc1nnc(NC(=O)CCC(=O)N2CCN(C3CCCC3)CC2)s1 | 1.48%
CC(C)(C)c1nn(-c2ccccc2)c2[nH]c(=O)c(CNCc3ccco3)cc12 | -26%
COc1ccc(-c2noc(C3CCCN(C(=O)Nc4ccccc4F)C3)n2)cc1 (centres unmarked) | -10.2%
CCc1ccc(CN2CCC(Oc3ccc(C(=O)N4CCCC4)cc3)CC2)cc1 | -81.3%
CCOC(C(=O)OCC(O)CN(CC)CC)(c1ccccc1)c1ccccc1.Cl (centres unmarked) | -5.25%
O=C(CN1CCC(NC(=O)c2ccco2)CC1)Nc1ccccc1[N+](=O)[O-] | -23.8%
N#Cc1ccccc1NS(=O)(=O)c1cc2c3c(c1)CCC(=O)N3CCC2 | 7.45%

Structure (SMILES) | hERG current change (%, negative = inhibition) at 10uM
CC(=O)NC1CC2CCCC(C1)N2 (centres unmarked) | 13.9%
COc1ccc2c(c1)[nH]c1c(=O)n(CCCn3ccnc3)cnc12 | -35.1%
O=C(NC1CCCC1)C1CCN(c2cnccn2)CC1 | 26.5%
CN(CC(=O)Nc1ccc(N2CCOCC2)cc1)C(=O)CSc1ccccc1F | 2.68%
FC(F)(F)c1cnc(Oc2ccccc2-c2nnc(-c3ccc(Cl)cc3)o2)c(Cl)c1 | -1.52%
O=C(c1ccc(Cl)cc1)C1CCCN(Cc2cccc3ncccc23)C1 (centres unmarked) | -52.1%
O=C(NCCCCCCCCCNC(=O)C(F)(F)F)C(F)(F)F | -4.99%
CSc1ncccc1C(=O)NC1CCCCCCC1 | 16%
O=C(CSc1n[nH]c(-c2cccnc2)n1)Nc1ccc(Br)cc1 | -0.858%
O=C(CCn1cnc2ccccc2c1=O)Nc1cccc(Cl)c1Cl | 35.3%
Brc1ccc(C2=CC(c3ccco3)n3ncnc3N2)cc1 (centres unmarked) | -19.5%
COc1ccc(C(C)=O)cc1Cn1nc(C)c([N+](=O)[O-])c1C | 18.5%
Cc1ccc(C(=O)NCCNC(=O)c2cccnc2)cc1 | 11.6%
O=C(NCCN1C(=O)C2C3C=CC(C3)C2C1=O)Nc1ccccc1 (centres unmarked) | -8.29%
CC(C)(C)c1ccc(C(=O)N2CCN(c3nc4ccccc4o3)CC2)cc1 | 5.49%
COc1cc([N+](=O)[O-])ccc1NC(=O)COC(=O)CCS(=O)(=O)c1ccc(C)cc1 | -24.3%
Cc1sc2ncnc(OCC(=O)N3CCN(C(=O)c4ccco4)CC3)c2c1C | -30.8%
COc1ccc(NS(=O)(=O)c2cc(NC(=O)/C=C/c3cc(OC)ccc3OC)ccc2N2CCCCC2)cc1 | -10.6%
Br.CCCCCCCC1CC(CSC(=N)N)OC1=O (centres unmarked) | -44.2%

Structure (SMILES) | hERG current change (%, negative = inhibition) at 10uM
Cc1cccc2c(=O)c(C(=O)NCCc3ccccc3)c[nH]c12 | 21.9%
COC(=O)c1cccc(NC(=O)CN2CCN(c3ccc(OC)cc3)CC2)c1 | -17.8%
Cc1ccc(C)c(NS(=O)(=O)c2cc(C(=O)NCc3ccccn3)ccc2C)c1 | -48.7%
Cc1nn(-c2ccc(N3CCOCC3)nn2)c(C)c1CCC(=O)NCc1ccc(F)cc1 | 3.27%
CCn1ncc(C(=O)Nc2cccc(Cl)c2)c1C | -24.1%
CC(C)C(OC(=O)c1ccco1)C(=O)NCc1cccs1 (centres unmarked) | -0.362%
Cc1cnc(NS(=O)(=O)c2ccc(Cl)cc2)c(Br)c1 | 12.9%
COc1ccc(OC)c(S(=O)(=O)N(C)CC(=O)Nc2ccc3c(c2)OCO3)c1 | -20.8%
Cc1cc(Nc2ccccc2)nn1C(=O)c1ccccc1 | -6.06%
COc1ccc(Cl)cc1NC(=O)c1nnn(CC(=O)Nc2ccc(OC)c(OC)c2)c1N | 15.1%
Cl.c1ccc(COc2cccc(CNCc3cccs3)c2)cc1 | -30.8%
COc1ccc(N(C(=O)c2snc(C(N)=O)c2N)C(CC(C)C)C(=O)NCC2CCCO2)cc1 (centres unmarked) | -14.8%
Cc1ccc2c(c1)C1CN(C)CCC1N2C(=O)COc1ccccc1F (centres unmarked) | -4.18%
COc1ccc(-n2ncc3c2CC(C)(C)CC3NC(=O)CSc2ccccn2)cc1 (centres unmarked) | -68%
CC(=O)Nc1c(O)nc(SCC(=O)N2CCCCC2)[nH]c1=O | 13.5%
NS(=O)(=O)c1cc2c(cc1Cl)NC(C(Cl)Cl)NS2(=O)=O (centres unmarked) | 20.2%
CN(CC(=O)Nc1ccc(Cl)cc1)C(=O)CNC(=O)c1ccc2ccccc2c1 | 8.98%
CC(=O)Nc1ccc(C2=CC(=O)C[C@H](c3ccc4c(c3)OCO4)C2)cc1 | -12.5%
